Results published in PubChem BioAssay AID504845 (National Center for Advancing Translational Sciences (NCATS), 2011).
Screen size: about 390,000 compounds; about 150 (0.038%) were called active. Inconclusive results, whose numbers are uncertain, are shown with a selection of clear calls. The call rests on the fitted dose curve; in most records, active means well fitted inhibition curve with a large enough effect; inconclusive means small, poorly fitted or top-dose-only effect; inactive means no such curve, though single readings can be large or run the other way. A potency beside an inconclusive call is a rough fit, not a confirmed value.

Each compound was assayed against Regulator of G-protein signaling 4 (Homo sapiens) (UniProt P49798) (assay: Inhibitors of Regulator of G Protein Signaling (RGS) 4: qHTS). Settings: Transcreener GDP fluorescence polarization, RGS4-accelerated GTP hydrolysis; series mostly up to 114 µM.
Summary of the method: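 MLSMR compounds (23 nl, pin-transferred) preincubated 10 min at room temperature with a 500nM (2x) first reagent, then RGS4 at 900nM (2x) plus Transcreener GDP mix added; fluorescence polarization (620/688 nm) read before and after 90 min at 30 °C.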
Further: nearly all actives have a fitted effect of over 75% in size.
On the % scale 0 is the no-effect control and ±100 the full control effect; potency means the concentration at half of the fitted maximal effect; tags describe the fitted curve by direction and shape.

Chain of UniProt P49798 (P49798 whole entry, looked up): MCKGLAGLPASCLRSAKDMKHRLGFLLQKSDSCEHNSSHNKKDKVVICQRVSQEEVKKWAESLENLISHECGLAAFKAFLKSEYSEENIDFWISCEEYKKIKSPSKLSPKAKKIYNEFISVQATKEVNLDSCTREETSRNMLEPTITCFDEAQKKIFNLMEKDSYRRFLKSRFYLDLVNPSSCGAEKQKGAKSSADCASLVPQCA

Row | SMILES | Potency | activity change, negative = inhibition
1 | CCOc1ccc(NC(=O)C(C)Sc2nnc(C)n2C)cc1 (stereo unspecified) | inconclusive: 31.6 µM [inhibitor, partial curve, poor fit] | 
2 | CC(=O)c1ccc(OCC(O)CN2CCN(c3ccccn3)CC2)cc1 (stereo unspecified) | inactive | 
3 | Cc1cccn2cc(CCNC(=O)c3ccco3)nc12 | inactive | 
4 | CCN(CC)C(C)CN1c2ccccc2Sc2ccccc21 (stereo unspecified) | inconclusive: 26.7 µM [inhibitor, partial curve] | 
5 | O=C(c1ccccc1)c1c2c(cc3sc4ccccc4[n+]13)-c1cccc3cccc-2c13 | inactive | 
6 | Cc1ccc(OCC(=O)Nc2ccccc2N2CCOCC2)c(C)c1 | inactive | 
7 | CCOc1ccccc1NC(=O)CN1CCCCCC1 | inactive | 
8 | C=C(CN(C)C)C(=O)c1ccc2c(c1)OCO2 | inconclusive: 35.5 µM [inhibitor, full curve, poor fit] | 
9 | CC(=O)N1CCN(c2ccc(NCc3ccc(-c4ccc(Br)cc4)o3)cc2)CC1 | inconclusive: 70.8 µM [inhibitor, partial curve, poor fit] | 
10 | Cc1ccc(NC(=O)CS(=O)CC(=O)Nc2ccccc2-c2ccc(C)o2)cc1 (stereo unspecified) | inconclusive: 79.4 µM [inhibitor, partial curve, poor fit] | 
11 | O=C(Nc1ccc2c(c1)OCCO2)c1cc2ccccc2o1 | inactive | 
12 | COc1ccc(-c2cc(-c3ccccc3)c(C#N)c(SCC(=O)O)n2)cc1 | inconclusive: 79.4 µM [inhibitor, partial curve, poor fit] | 
13 | CS(=O)(=O)N1CCN(S(=O)(=O)c2ccccc2[N+](=O)[O-])CC1 | inconclusive: 50.1 µM [inhibitor, partial curve, poor fit] | 
14 | O=S(=O)(Nc1ccc(O)c2ccccc12)c1ccc(OC(F)(F)F)cc1 | inconclusive: 56.2 µM [inhibitor, partial curve, poor fit] | 
15 | COc1cccc(N2CCN(C(=O)c3ccc(CS(=O)c4ccccc4C)o3)CC2)c1 (stereo unspecified) | inconclusive: 100 µM [inhibitor, single point] | 
16 | COC(=O)c1cccc(N2C(=O)C(Cl)=C(N3CCOCC3)C2=O)c1 | inconclusive: 50.1 µM [inhibitor, partial curve, poor fit] | 
17 | CC(=O)N1CCN(CC(=O)Nc2ccccc2C(=O)Nc2ccccc2)CC1 | inactive | 
18 | Cc1ccc(C)c(S(=O)(=O)N2CCCCC2CCNC(=O)C(=O)NCc2ccccc2)c1 (stereo unspecified) | inconclusive: 89.1 µM [inhibitor, single point] | 
19 | O=C(CCC(=O)n1ncc2ccccc21)NCc1ccc(F)cc1 | inconclusive: 50.1 µM [inhibitor, partial curve, poor fit] | 
20 | CN(Cc1cc(-c2ccccc2)on1)C(=O)c1cc(COc2c(F)cccc2F)on1 |  | inactive: 5.08% [at 11.4 µM]
21 | CCOC(=O)/C=C(\C)Sc1cc(O)c2ccccc2c1O | inconclusive: 31.6 µM [inhibitor, full curve, poor fit] | 
22 | Cc1ccccc1-n1c(SC/C(O)=C(\C#N)c2nc3ccccc3[nH]2)nnc1-c1ccncc1 | inconclusive: 89.1 µM [inhibitor, single point] | 

Row | SMILES | Potency | activity change, negative = inhibition
23 | CCOC(=O)c1c(N)sn(-c2ccccc2C)c1=S | inconclusive: 50.1 µM [inhibitor, partial curve, poor fit] | 
24 | COc1ccc(/C=C2\SC(=S)NC2=O)cc1OS(=O)(=O)c1ccc(NC(C)=O)cc1 | inconclusive: 100 µM [inhibitor, single point] | 
25 | O=C1NC(c2ccc(Br)cc2)Nc2sc3c(c21)CCC3 (stereo unspecified) | inconclusive: 100 µM [inhibitor, single point] | 
26 | COC(=O)c1ccc(NC(=O)C23CC4CC(C2)CC(n2cnc(Cl)n2)(C4)C3)cc1 | inconclusive: 89.1 µM [inhibitor, single point] | 
27 | Cc1cccc(NC(=O)CSc2nnc(-c3ccco3)c(-c3ccco3)n2)c1C | inconclusive: 79.4 µM [inhibitor, partial curve, poor fit] | 
28 | CCOC(=O)CSc1n[nH]c(-c2ccco2)n1 | inconclusive: 89.1 µM [inhibitor, partial curve, poor fit] | 
29 | COC(=O)c1cc(=O)nc2sc(-c3ccc(F)cc3)nn12 | inconclusive: 79.4 µM [inhibitor, partial curve, poor fit] | 
30 | CCC(c1nnnn1Cc1cccs1)N1CCN(C2CCCC2)CC1 (stereo unspecified) | inactive | 
31 | COc1cccc(NC(=O)CSc2nnc(-c3ccco3)c(-c3ccco3)n2)c1 | inconclusive: 35.5 µM [inhibitor, full curve, poor fit] | 
32 | CCCCCOc1ccc(CSC(=N)N)cc1[N+](=O)[O-] | inactive | 
33 | Cc1nnc(SCC2=C(C(=O)O)N3C(=O)C(NC(=O)COc4ccc(F)cc4)C3SC2)s1 (stereo unspecified) | inconclusive: 70.8 µM [inhibitor, partial curve, poor fit] | 
34 | COc1ccc(CNC(=O)Nc2cn(CC(C)C)c(=O)c3ccccc23)cc1 | inactive | 
35 | O=C(COC(=O)c1ccccc1NC(=O)c1ccco1)NCc1ccc2c(c1)OCO2 | inconclusive: 89.1 µM [inhibitor, single point] | 
36 | O=C(O)CCc1ccc(-c2ccc(Br)cc2)n1-c1ccc(O)cc1 | inactive | 
37 | Cc1ccc(-c2nn(-c3ccccc3)cc2CO)cc1 | inactive | 
38 | CCCN1C(=O)/C(=C/c2cc(C)n(C)c2C)SC1=Nc1ccc(OC)cc1 | inconclusive: 79.4 µM [inhibitor, partial curve, poor fit] | 
39 | CC1(C)CC(NC(=O)c2ccccc2C(=O)NC2CC(C)(C)NC(C)(C)C2)CC(C)(C)N1 |  | inactive: 3.13% [at 11.4 µM]
40 | CCc1ccc(CCC(=O)Nc2sc(C)c(C)c2C(=O)OC)o1 | inconclusive: 31.6 µM [inhibitor, full curve, poor fit] | 
41 | CCCN1C(=O)c2ccccc2NC1c1ccc(Cl)c(Cl)c1 (stereo unspecified) | inconclusive: 79.4 µM [inhibitor, partial curve, poor fit] | 
42 | CC(C)(C)NC(=O)COc1ccc(CNCc2cccnc2)cc1 | inconclusive: 70.8 µM [inhibitor, partial curve, poor fit] | 
43 | Cc1ccc(C(NC(=O)NC(C)c2ccccc2)C(Cl)(Cl)Cl)cc1F (stereo unspecified) | inactive | 
44 | CN(C)S(=O)(=O)c1ccc2c(c1)/C(=C/c1cc3c([nH]1)CCCC3)C(=O)N2 | inconclusive: 11.9 µM [inhibitor, partial curve] | 

Row | SMILES | Potency | activity change, negative = inhibition
45 | Cn1nc(-c2ccccc2)c(CO)c1Oc1ccc(F)cc1 | inconclusive: 17.8 µM [inhibitor, full curve, poor fit] | 
46 | CCOC(=O)c1c(NC(=O)CSc2cn(CCNC(=O)c3c(F)cccc3F)c3ccccc23)sc2c1CCC2 | inactive | 
47 | CC1(CCC(=O)O)C(=O)CCC2C1CCC1(C)C2CCC1(C)O (stereo unspecified) | inconclusive: 70.8 µM [inhibitor, single point] | 
48 | CC/C(=N\NC(=O)c1nnn(-c2nonc2N)c1-c1cccs1)c1ccccc1 | inactive | 
49 | Cc1ccc(SC2=NS(=O)(=O)c3ccccc32)c(C)c1 | inconclusive: 17.8 µM [inhibitor, full curve, poor fit] | 
50 | CCOCCCNc1nc(=S)[nH]c2cc(OC)c(OC)cc12 | inconclusive: 79.4 µM [inhibitor, single point] | 
51 | CCOc1ccc(/C=C/C(=O)Oc2ccc(OC)cc2)cc1 | inactive | 
52 | Cc1ccc(-c2nc3ccccc3c(C(=O)NCc3cccs3)c2C)cc1 | inconclusive: 89.1 µM [inhibitor, partial curve, poor fit] | 
53 | COc1ccc(NC(=O)c2c(NCc3ccc(OC)c(OC)c3OC)sc3c2CCC3)c(OC)c1 | inconclusive: 89.1 µM [inhibitor, partial curve, poor fit] | 
54 | COc1ccc(NC(=O)Nc2cc3oc4ccccc4c3cc2OC)cc1 | inactive | 
55 | O=C(NCc1ccco1)c1ccc2ccccc2c1 | inactive | 
56 | CCOC(=O)c1cc(-c2ccccc2)nc2c1c(C)nn2-c1ccccn1 | inconclusive: 89.1 µM [inhibitor, single point] | 
57 | NS(=O)(=O)c1ccc(-c2ccc(/C=C3\NC(=S)NC3=O)o2)cc1 | inconclusive: 50.1 µM [inhibitor, partial curve, poor fit] | 
58 | COc1ccc(Nc2nc3ccc(C)cn3c(=O)c2/C=N/O)cc1 | inconclusive: 17.8 µM [inhibitor, full curve, poor fit] | 
59 | Cc1cc(C)c(C#N)c(SCC(=O)CC(=O)OC(C)C)n1 | inconclusive: 89.1 µM [inhibitor, single point] | 
60 | Cc1onc(-c2ccccc2)c1CNC(=O)Nc1cccc(Cl)c1 | inactive | 
61 | CS(=O)(=O)NCCn1ccc2ccccc21 | inconclusive: 17.8 µM [inhibitor, full curve, poor fit] | 
62 | COc1cc(CN(C(=O)Nc2cccc(Cl)c2)c2ccccn2)cc(OC)c1OC | inactive | 
63 | CCOC(=O)C1=CN(Cc2ccco2)S(=O)(=O)N(CC)C1c1ccc(C(F)(F)F)cc1 (stereo unspecified) | inconclusive: 44.7 µM [inhibitor, partial curve, poor fit] | 
64 | CC(=O)c1ccc(NC(=O)CSc2nnc(-c3ccco3)c(-c3ccco3)n2)cc1 | inconclusive: 50.1 µM [inhibitor, partial curve, poor fit] | 
65 | CCOC(=O)c1c(NC(=O)CSc2nc(-c3ccc(OC)cc3)cc(C(F)(F)F)n2)sc(C)c1C | inconclusive: 79.4 µM [inhibitor, partial curve, poor fit] | 
66 | COc1ccc(OCC(=O)Nc2cccc(C(=O)OCc3cc(=O)n4nc(C)sc4n3)c2)cc1 | inconclusive: 50.1 µM [inhibitor, partial curve, poor fit] | 
